# Test results from the supplement of paper PMC8728848.
# The other results are listed elsewhere or left out.
# B1: PX14367A-bth-493-35-493 (Bacteroides thetaiotaomicron) (protein)
# chain: VSSDQVAVAGNAERLFNGAWYNLFEYGTTYANIGYRALQCQDDMMASDVVSRPKYGFNSSYQFNDVAIPSDGRTSFAWYLIYKTIDNCNTAISIKGDSEELRQAQGQALALRAFCYLHLVQHYQFTYLKDKDAPCVPIYTEPTTSGTKPKGKSTVAQVYQQIFDDLNLAQDYLTNYVRKGDGQKFKPNTDVVNGLMARAYLLTGQWGEAAKAAEAARKGYSLMTTTAEYEGFNNISNKEWIWGSPQTLSQSDASYNFYYLDATYVGAYSSFMADPHLMDTFVKGDIRLPLFQWMREGYLGYKKFHMRSDDTADLVLMRSAEMYLIEAEAKVRDGVALDQAVAPLNTLRTARGVGNYDVTGKTKEQVIDEILMERRRELWGEGFGITDVLRNQKAVERMALSEDMQKTEVDCWQEGGSFAKRNPLGHWFLNFPDGKAFSANSSYYLYAIPEKEINANPNL
# Columns and labels:
# Test in all cases: glycan array binding signal (z-score within array); higher = stronger binding
# Settings in all cases: glycan notation: IUPAC condensed, linker removed
# [1] = molecular target: Fuc(a1-2)[GalNAc(a1-3)]Gal(b1-3)GlcNAc(b1-6)GalNAc
# In short: (§1)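 Glycan array binding is given as a within-array Z-score, which can be read as non-binding when negative. The arrays, 3228 of them, came from the Consortium for Functional Glycomics database and were retained only where the protein sequence was available. Z-scores were averaged across arrays of the same protein sequence at different concentrations or buffers and across linkers.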
# [2] = molecular target: Fuc(a1-2)[GalNAc(a1-3)]Gal(b1-4)Glc
# In short: as §1
# [3] = molecular target: Fuc(a1-2)[GalNAc(a1-3)]Gal(b1-4)GlcNAc
# In short: as §1
# [4] = molecular target: Fuc(a1-2)[GalNAc(a1-3)]Gal(b1-4)GlcNAc(b1-2)Man
# In short: as §1
# [5] = molecular target: Fuc(a1-2)[GalNAc(a1-3)]Gal(b1-4)GlcNAc(b1-2)Man(a1-3)[Fuc(a1-2)[GalNAc(a1-3)]Gal(b1-4)GlcNAc(b1-2)Man(a1-6)]Man(b1-4)GlcNAc(b1-4)GlcNAc
# In short: as §1
# [6] = molecular target: Fuc(a1-2)[GalNAc(a1-3)]Gal(b1-4)GlcNAc(b1-2)Man(a1-3)[Fuc(a1-2)[GalNAc(a1-3)]Gal(b1-4)GlcNAc(b1-2)Man(a1-6)]Man(b1-4)GlcNAc(b1-4)[Fuc(a1-6)]GlcNAc
# In short: as §1
# [7] = molecular target: Fuc(a1-2)[GalNAc(a1-3)]Gal(b1-4)GlcNAc(b1-3)Gal(b1-4)GlcNAc
# In short: as §1
# [8] = molecular target: Fuc(a1-2)[GalNAc(a1-3)]Gal(b1-4)GlcNAc(b1-3)Gal(b1-4)GlcNAc(b1-3)Gal(b1-4)GlcNAc
# In short: as §1
# [9] = molecular target: Fuc(a1-2)[GalNAc(a1-3)]Gal(b1-4)GlcNAc(b1-3)GalNAc
# In short: as §1
# [10] = molecular target: Fuc(a1-2)[GalNAc(a1-3)]Gal(b1-4)GlcNAc(b1-3)[Fuc(a1-2)[GalNAc(a1-3)]Gal(b1-4)GlcNAc(b1-6)]GalNAc
# In short: as §1
# [11] = molecular target: Fuc(a1-2)[GalNAc(a1-3)]Gal(b1-4)GlcNAc(b1-6)GalNAc
# In short: as §1
# [12] = molecular target: Fuc(a1-2)[GalNAc(a1-3)]Gal(b1-4)[Fuc(a1-3)]GlcNAc
# In short: as §1
# [13] = molecular target: Fuc(a1-2)[GalNAc(a1-3)]Gal(b1-4)[Fuc(a1-3)]GlcNAc(b1-3)GalNAc
# In short: as §1
# [14] = molecular target: Fuc(a1-2)[GalNAc(a1-4)]Gal(b1-4)GlcNAc
# In short: as §1
# [15] = molecular target: Fuc(a1-2)[GalNAc(b1-3)]Gal
# In short: as §1
# [16] = molecular target: Fuc(a1-3)GlcNAc
# In short: as §1
# [17] = molecular target: Fuc(a1-3)[Gal(b1-4)]Glc6S
# In short: as §1
# [18] = molecular target: Fuc(a1-3)[Gal(b1-4)]GlcNAc
# In short: as §1
# [19] = molecular target: Fuc(a1-3)[Gal(b1-4)]GlcNAc(b1-2)Man
# In short: as §1
# [20] = molecular target: Fuc(a1-3)[Gal(b1-4)]GlcNAc(b1-2)Man(a1-3)[Fuc(a1-3)[Gal(b1-4)]GlcNAc(b1-2)Man(a1-6)]Man(b1-4)GlcNAc(b1-4)GlcNAc
# In short: as §1
# [21] = molecular target: Fuc(a1-3)[Gal(b1-4)]GlcNAc(b1-2)Man(a1-3)[Fuc(a1-3)[Gal(b1-4)]GlcNAc(b1-2)Man(a1-6)]Man(b1-4)GlcNAc(b1-4)[Fuc(a1-6)]GlcNAc
# In short: as §1
# [22] = molecular target: Fuc(a1-3)[Gal(b1-4)]GlcNAc(b1-3)Gal(b1-3)[Fuc(a1-4)]GlcNAc
# In short: as §1
# [23] = molecular target: Fuc(a1-3)[Gal(b1-4)]GlcNAc(b1-3)Gal(b1-4)[Fuc(a1-3)]GlcNAc
# In short: as §1
# [24] = molecular target: Fuc(a1-3)[Gal(b1-4)]GlcNAc(b1-3)Gal(b1-4)[Fuc(a1-3)]GlcNAc(b1-3)Gal(b1-4)[Fuc(a1-3)]GlcNAc
# In short: as §1
# [25] = molecular target: Fuc(a1-3)[Gal(b1-4)]GlcNAc(b1-3)GalNAc
# In short: as §1
# [26] = molecular target: Fuc(a1-3)[Gal(b1-4)]GlcNAc(b1-6)GalNAc
# In short: as §1
# [27] = molecular target: Fuc(a1-3)[Gal(b1-4)]GlcNAc(b1-6)[Gal(b1-3)GlcNAc(b1-3)]Gal(b1-4)Glc
# In short: as §1
# [28] = molecular target: Fuc(a1-3)[Gal(b1-4)]GlcNAc6S
# In short: as §1
# [29] = molecular target: Fuc(a1-3)[Gal3S(b1-4)]Glc
# In short: as §1
# [30] = molecular target: Fuc(a1-3)[Gal3S(b1-4)]GlcNAc
# In short: as §1
# [31] = molecular target: Fuc(a1-3)[Gal3S(b1-4)]GlcNAc6S
# In short: as §1
# [32] = molecular target: Fuc(a1-3)[GalNAc(b1-4)]GlcNAc
# In short: as §1
# [33] = molecular target: Fuc(a1-3)[GalNAc(b1-4)]GlcNAc6S
# In short: as §1
# [34] = molecular target: Fuc(a1-4)GlcNAc
# In short: as §1
# [35] = molecular target: Fuc(b1-3)GlcNAc
# In short: as §1
# [36] = molecular target: Gal(a1-2)Gal
# In short: as §1
# [37] = molecular target: Gal(a1-3)Gal
# In short: as §1
# [38] = molecular target: Gal(a1-3)Gal(b1-3)GlcNAc
# In short: as §1
# [39] = molecular target: Gal(a1-3)Gal(b1-3)GlcNAc(b1-2)Man
# In short: as §1
# [40] = molecular target: Gal(a1-3)Gal(b1-3)GlcNAc(b1-2)Man(a1-3)[Gal(a1-3)Gal(b1-3)GlcNAc(b1-2)Man(a1-6)]Man(b1-4)GlcNAc(b1-4)GlcNAc
# In short: as §1
# [41] = molecular target: Gal(a1-3)Gal(b1-3)GlcNAc(b1-3)GalNAc
# In short: as §1
# [42] = molecular target: Gal(a1-3)Gal(b1-3)GlcNAc(b1-6)GalNAc
# In short: as §1
# [43] = molecular target: Gal(a1-3)Gal(b1-3)[Fuc(a1-4)]GlcNAc(b1-2)Man(a1-3)[Gal(a1-3)Gal(b1-3)[Fuc(a1-4)]GlcNAc(b1-2)Man(a1-6)]Man(b1-4)GlcNAc(b1-4)GlcNAc
# In short: as §1
# [44] = molecular target: Gal(a1-3)Gal(b1-4)Glc
# In short: as §1
# [45] = molecular target: Gal(a1-3)Gal(b1-4)GlcNAc
# In short: as §1
binder,measurement,setting,value
B1,glycan array binding signal (z-score),[1],-0.358
same,glycan array binding signal (z-score),[2],-0.501
same,glycan array binding signal (z-score),[3],-0.494
same,glycan array binding signal (z-score),[4],-0.753
same,glycan array binding signal (z-score),[5],0.1
same,glycan array binding signal (z-score),[6],0.207
same,glycan array binding signal (z-score),[7],0.035
same,glycan array binding signal (z-score),[8],-0.197
same,glycan array binding signal (z-score),[9],-0.479
same,glycan array binding signal (z-score),[10],-0.525
same,glycan array binding signal (z-score),[11],0.92
same,glycan array binding signal (z-score),[12],-0.482
same,glycan array binding signal (z-score),[13],0.737
same,glycan array binding signal (z-score),[14],-0.295
same,glycan array binding signal (z-score),[15],0.042
same,glycan array binding signal (z-score),[16],-0.507
same,glycan array binding signal (z-score),[17],0.535
same,glycan array binding signal (z-score),[18],-0.378
same,glycan array binding signal (z-score),[19],0.1
same,glycan array binding signal (z-score),[20],-0.409
same,glycan array binding signal (z-score),[21],-0.25
same,glycan array binding signal (z-score),[22],-0.481
same,glycan array binding signal (z-score),[23],-0.421
same,glycan array binding signal (z-score),[24],-0.385
same,glycan array binding signal (z-score),[25],0.127
same,glycan array binding signal (z-score),[26],-0.336
same,glycan array binding signal (z-score),[27],-0.378
same,glycan array binding signal (z-score),[28],-0.31
same,glycan array binding signal (z-score),[29],-0.329
same,glycan array binding signal (z-score),[30],-0.291
same,glycan array binding signal (z-score),[31],-0.293
same,glycan array binding signal (z-score),[32],0.197
same,glycan array binding signal (z-score),[33],-0.307
same,glycan array binding signal (z-score),[34],-0.571
same,glycan array binding signal (z-score),[35],-0.157
same,glycan array binding signal (z-score),[36],-0.084
same,glycan array binding signal (z-score),[37],0.237
same,glycan array binding signal (z-score),[38],-0.773
same,glycan array binding signal (z-score),[39],0.052
same,glycan array binding signal (z-score),[40],0.822
same,glycan array binding signal (z-score),[41],-0.508
same,glycan array binding signal (z-score),[42],-0.007
same,glycan array binding signal (z-score),[43],-0.041
same,glycan array binding signal (z-score),[44],-0.294
same,glycan array binding signal (z-score),[45],0.166
